# Over roughly 33,000 sequences, “E-score (-0.5 to 0.5)” has its median near -0.012; the highest 2% begin near 0.29. The list shows a part of the results.
# Biological target: T1, Ybr033w (UniProt P38073)
# T1 sequence: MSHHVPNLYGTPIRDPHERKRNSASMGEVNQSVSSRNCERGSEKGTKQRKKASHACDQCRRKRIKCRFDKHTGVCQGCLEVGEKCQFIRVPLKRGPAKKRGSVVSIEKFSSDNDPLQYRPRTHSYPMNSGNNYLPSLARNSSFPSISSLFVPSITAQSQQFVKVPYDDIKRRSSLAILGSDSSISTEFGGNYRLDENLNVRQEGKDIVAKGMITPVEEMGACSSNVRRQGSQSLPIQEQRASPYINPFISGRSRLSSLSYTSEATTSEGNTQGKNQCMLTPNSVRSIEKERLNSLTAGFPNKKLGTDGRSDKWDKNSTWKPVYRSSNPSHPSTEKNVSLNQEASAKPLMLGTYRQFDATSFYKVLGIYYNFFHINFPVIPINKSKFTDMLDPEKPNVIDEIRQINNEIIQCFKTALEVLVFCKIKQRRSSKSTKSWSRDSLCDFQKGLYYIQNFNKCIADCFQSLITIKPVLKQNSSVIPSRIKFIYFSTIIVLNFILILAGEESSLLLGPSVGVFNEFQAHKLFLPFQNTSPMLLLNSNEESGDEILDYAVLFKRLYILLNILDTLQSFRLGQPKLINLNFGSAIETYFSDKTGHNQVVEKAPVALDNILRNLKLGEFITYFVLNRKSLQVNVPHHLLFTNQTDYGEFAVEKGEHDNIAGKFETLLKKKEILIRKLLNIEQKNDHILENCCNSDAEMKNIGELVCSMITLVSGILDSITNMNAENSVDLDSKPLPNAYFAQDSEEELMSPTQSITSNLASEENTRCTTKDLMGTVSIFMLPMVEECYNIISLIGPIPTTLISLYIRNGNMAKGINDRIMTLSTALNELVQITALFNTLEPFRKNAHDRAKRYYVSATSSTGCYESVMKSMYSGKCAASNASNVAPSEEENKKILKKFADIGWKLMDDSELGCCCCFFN
# Assay: PBM E-score (8-mer binding enrichment) (E-score (-0.5 to 0.5)); higher = stronger / more preferred TF binding; most listed sequences are background and not binding sites
# Details: protein concentration: 200 nM; construct: GST-full length
# Experimental: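 Universal 'all 10-mer' protein binding microarrays (Agilent AMADID 015681) probed with GST-tagged S. cerevisiae TFs (full-length or DBD) made by in vitro transcription/translation (PURExpress), about 100-200 nM. Bound TF was detected with fluorescent anti-GST. Each ungapped 8-mer (which stands for itself and its reverse complement) is scored by the PBM enrichment score (E-score), a modified Wilcoxon-Mann-Whitney statistic from -0.5 to +0.5, computed with the Universal PBM Analysis Suite. Scale: above 0.35 generally sequence-specific binding.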
row,Sequence,PBM E-score
1,AGTCGCAA,0.0957
2,ATTAATAG,0.373
3,AAGGCCCT,-0.136
4,CCCACCAA,-0.105
5,CTCAAAGC,0.107
6,CTAGAACA,0.166
7,CCGTAAGA,-0.131
8,ACCTTAGC,-0.0632
9,GGGCCCCC,-0.299
10,AACCCCGA,-0.0425
11,TGAGCGAA,0.129
12,AGGGTCAT,-0.252
13,AGCGTACG,-0.198
14,GTGTAGTA,-0.0213
15,CTGGCTGA,-0.152
16,AACGTCGT,0.0674
17,AGGTAGGA,-0.108
18,GACCTAAA,0.0634
19,ACACGATA,0.178
20,GAAAGCAA,0.0974
21,TGGTCCAA,-0.133
22,CTAGGGAG,-0.172
23,CCCACCGC,-0.0625
24,CAGCGAAG,-0.165
25,GACCTCAA,0.047

row,Sequence,PBM E-score
1,ATCTCCTG,0.116
2,GCGGCGCC,-0.201
3,GCTCGAAA,0.00319
4,ATTGTTCG,0.244
5,GCACGCCA,-0.206
6,CAACCGAG,-0.0277
7,TCTCTAAA,-0.153
8,ATTCAGGA,0.0525
9,ATAGAGGC,-0.0264
10,CCATATGA,-0.0574
11,GCATGGTA,-0.0754
12,AAAGAACT,0.127
13,AGTATCGC,-0.165
14,CTTCACGA,-0.221
15,GTATCGAA,0.239
16,CTTTTCGA,0.11
17,CGAACAAA,0.191
18,TATTCGCA,0.123
19,GGTTCAGA,0.053
20,GGTTTTGA,0.168
21,TCTGCCCA,-0.00667
22,AGTGCGAT,-0.127
23,TCAATAAA,0.245
24,CCGATACC,-0.122
25,TCCAGAGA,-0.00197

row,Sequence,PBM E-score
1,CTTTTGGA,0.0334
2,AGAGGACC,-0.179
3,CCCTCACA,-0.117
4,ACCATCTC,-0.0025
5,CGCATTAA,0.234
6,AACCTTGG,-0.0337
7,CCTCCTGC,-0.0702
8,CAACCCAG,-0.174
9,CTGGACAA,-0.11
10,CGACAAAA,0.195
11,ACCACCGA,-0.118
12,GACTCAGA,-0.0988
13,AATTTGAC,0.24
14,AAGCCCCG,-0.249
15,TACCGAGA,-0.226
16,CAGACCAC,-0.0942
17,TTGAGCAA,-0.136
18,GAGTACGC,-0.0885
19,GCAGAGAC,-0.354
20,ACTGCATC,0.109
21,CGGTTAAA,0.133
22,GAGGTTGA,-0.0641
23,CCTAGCGA,-0.229
24,ATTATAAA,0.229
25,AAGACGAG,-0.0642

row,Sequence,PBM E-score
1,ACTCGCGG,-0.0337
2,AGGGAGGC,-0.273
3,ATGTCACG,0.0332
4,CGATGATC,0.148
5,GAGGCAAA,0.0439
6,GACGGTGC,-0.0595
7,AGCGTTGA,-0.0485
8,GTGGCCAC,-0.159
9,TGGACACA,-0.116
10,GCAGGGTA,-0.0735
11,ATGAGGTG,-0.122
12,AATCCCTG,0.0878
13,ACTACACT,0.00844
14,ACGATAAC,0.208
15,ATCGCTCG,-0.0925
16,TTTATAAA,0.168
17,ACTGGAAC,0.072
18,AAGCCAGT,-0.101
19,AGTCGATG,-0.147
20,CGACCCCA,-0.198
21,CTCAACCA,0.00684
22,ACGGTTGG,-0.0461
23,CACGCACC,-0.0822
24,ACTAGGCT,-0.0222
25,ACCAGTAC,-0.0613

row,Sequence,PBM E-score
1,CCTTCTAG,-0.184
2,CTGTCTGC,-0.25
3,AGGCTAGA,-0.186
4,ATTCGCTA,-0.0123
5,AATCATCC,0.218
6,AAACCGTA,-0.0403
7,CATACGGC,0.01
8,GATATAGA,0.127
9,AGGGCGCC,-0.179
10,CTCATCAA,0.0929
11,ATGATCTA,0.228
12,CGATAGCA,-0.156
13,TAAACCTA,0.11
14,TCCGTAGA,-0.095
15,CAGGCTTA,-0.148
16,CTGGGTAC,-0.197
17,AGTGGAAC,0.0284
18,ACGGTAGG,-0.0769
19,AGGTCACT,-0.164
20,AGCGAACC,0.0724
21,GCCTTCCC,-0.292
22,TCGTACGA,0.0409
23,GCATGGCC,-0.215
24,AACCACGG,-0.102
25,ATATAATC,0.252

row,Sequence,PBM E-score
1,CCCAGCGG,-0.322
2,ATTGGGCC,-0.0192
3,CGGCATTA,0.0191
4,AGGAGGAC,-0.379
5,CCGCTCTA,-0.134
6,CAATGGGG,-0.0408
7,CTGGGGGA,-0.277
8,CGAACACC,-0.132
9,CATAGTTC,-0.0864
10,AATGAACG,0.0676
11,AATACGAG,0.225
12,AACCATCC,-0.0803
13,AACCTACC,-0.112
14,AACAAAAT,0.291
15,CAGGCTCC,-0.245
16,AGCTAGGG,-0.139
17,ACTCTCGA,-0.0306
18,CAGCCCAC,-0.0618
19,GCGGGGCC,-0.246
20,CGTATTAA,0.108
21,ACCCTATG,0.052
22,ACAGTCCG,-0.184
23,ACTATCGC,-0.0121
24,CCCGGCCC,-0.275
25,TATAAAGA,0.181

row,Sequence,PBM E-score
1,ACTAAGTC,0.0517
2,GCCAATAA,0.097
3,AAAGCTGT,0.199
4,CTTCTTAC,-0.0554
5,AAGCGGCC,-0.259
6,CGGCCTGA,-0.243
7,CCGTACCG,-0.198
8,ATTTAGAA,0.22
9,CTGGTCAA,0.0335
10,CTAGACCA,-0.0132
11,ACGGAAGA,0.338
12,ATATTATA,0.227
13,ATACACCG,0.05
14,CACTCCTC,-0.339
15,AGCTCCGG,-0.162
16,CTACGACC,-0.0526
17,CCGGTCTA,-0.206
18,AACCATTA,0.188
19,AGGAGCTC,-0.19
20,CAGGTCTA,0.0409
21,AGACCATC,-0.0542
22,GAGGATGA,0.00075
